Numbering of substitutions follows the chain as printed; changes in the protein carry UniProt numbers. The list shows a part of the results.
T1: RBFOX1 RRM (Homo sapiens, UniProt Q9NWB1 109-208)
T1 sequence: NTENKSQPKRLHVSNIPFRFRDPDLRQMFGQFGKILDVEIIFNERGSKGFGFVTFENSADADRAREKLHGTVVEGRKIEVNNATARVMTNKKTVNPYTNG

B1: UAACACA (DNA:RNA)
RNA: GGGAGACCGGAAUUCAGAUUGUCCUAACACAUUAAAUCCCGUCGUAGCCACCA
DNA 1: CAATCTGAATTCCGGTCTCCC
DNA 2: TGGTGGCTACGACGGGATT
B2: AAUACGC (DNA:RNA)
RNA: B1 RNA with U25A, A27U, C28A, A29C, C30G, A31C
DNA 1: CAATCTGAATTCCGGTCTCCC
DNA 2: TGGTGGCTACGACGGGATT
B3: UGGCCAU (DNA:RNA)
RNA: B1 RNA with A26G, A27G, A29C, C30A, A31U
DNA 1: CAATCTGAATTCCGGTCTCCC
DNA 2: TGGTGGCTACGACGGGATT
B4: GGCCAUU (DNA:RNA)
RNA: B1 RNA with U25G, A26G, A27C, C30U, A31U
DNA 1: CAATCTGAATTCCGGTCTCCC
DNA 2: TGGTGGCTACGACGGGATT
B5: AGGCCUG (DNA:RNA)
RNA: B1 RNA with U25A, A26G, A27G, A29C, C30U, A31G
DNA 1: CAATCTGAATTCCGGTCTCCC
DNA 2: TGGTGGCTACGACGGGATT
B6: GGACAUA (DNA:RNA)
RNA: B1 RNA with U25G, A26G, C30U
DNA 1: CAATCTGAATTCCGGTCTCCC
DNA 2: TGGTGGCTACGACGGGATT
B7: UCGCAUC (DNA:RNA)
RNA: B1 RNA with A26C, A27G, C30U, A31C
DNA 1: CAATCTGAATTCCGGTCTCCC
DNA 2: TGGTGGCTACGACGGGATT
B8: UCUGAUU (DNA:RNA)
RNA: B1 RNA with A26C, A27U, C28G, C30U, A31U
DNA 1: CAATCTGAATTCCGGTCTCCC
DNA 2: TGGTGGCTACGACGGGATT
B9: UAGCAGC (DNA:RNA)
RNA: B1 RNA with A27G, C30G, A31C
DNA 1: CAATCTGAATTCCGGTCTCCC
DNA 2: TGGTGGCTACGACGGGATT
B10: AUCUAAU (DNA:RNA)
RNA: B1 RNA with U25A, A26U, A27C, C28U, C30A, A31U
DNA 1: CAATCTGAATTCCGGTCTCCC
DNA 2: TGGTGGCTACGACGGGATT
B11: UGCACUA (DNA:RNA)
RNA: B1 RNA with A26G, A27C, C28A, A29C, C30U
DNA 1: CAATCTGAATTCCGGTCTCCC
DNA 2: TGGTGGCTACGACGGGATT
B12: CAUCUGG (DNA:RNA)
RNA: B1 RNA with U25C, A27U, A29U, C30G, A31G
DNA 1: CAATCTGAATTCCGGTCTCCC
DNA 2: TGGTGGCTACGACGGGATT
B13: GAGGCGA (DNA:RNA)
RNA: B1 RNA with U25G, A27G, C28G, A29C, C30G
DNA 1: CAATCTGAATTCCGGTCTCCC
DNA 2: TGGTGGCTACGACGGGATT
B14: GCACUGU (DNA:RNA)
RNA: B1 RNA with U25G, A26C, A29U, C30G, A31U
DNA 1: CAATCTGAATTCCGGTCTCCC
DNA 2: TGGTGGCTACGACGGGATT
B15: AUGAACU (DNA:RNA)
RNA: B1 RNA with U25A, A26U, A27G, C28A, A31U
DNA 1: CAATCTGAATTCCGGTCTCCC
DNA 2: TGGTGGCTACGACGGGATT
B16: GAGUAGG (DNA:RNA)
RNA: B1 RNA with U25G, A27G, C28U, C30G, A31G
DNA 1: CAATCTGAATTCCGGTCTCCC
DNA 2: TGGTGGCTACGACGGGATT
B17: UAUAUUA (DNA:RNA)
RNA: B1 RNA with A27U, C28A, A29U, C30U
DNA 1: CAATCTGAATTCCGGTCTCCC
DNA 2: TGGTGGCTACGACGGGATT
B18: UUGGGCG (DNA:RNA)
RNA: B1 RNA with A26U, A27G, C28G, A29G, A31G
DNA 1: CAATCTGAATTCCGGTCTCCC
DNA 2: TGGTGGCTACGACGGGATT
B19: UAGUAGU (DNA:RNA)
RNA: B1 RNA with A27G, C28U, C30G, A31U
DNA 1: CAATCTGAATTCCGGTCTCCC
DNA 2: TGGTGGCTACGACGGGATT
B20: UAACCGG (DNA:RNA)
RNA: B1 RNA with A29C, C30G, A31G
DNA 1: CAATCTGAATTCCGGTCTCCC
DNA 2: TGGTGGCTACGACGGGATT
B21: GUACGUC (DNA:RNA)
RNA: B1 RNA with U25G, A26U, A29G, C30U, A31C
DNA 1: CAATCTGAATTCCGGTCTCCC
DNA 2: TGGTGGCTACGACGGGATT
B22: UCGUUAC (DNA:RNA)
RNA: B1 RNA with A26C, A27G, C28U, A29U, C30A, A31C
DNA 1: CAATCTGAATTCCGGTCTCCC
DNA 2: TGGTGGCTACGACGGGATT
B23: ACCCCCA (DNA:RNA)
RNA: B1 RNA with U25A, A26C, A27C, A29C
DNA 1: CAATCTGAATTCCGGTCTCCC
DNA 2: TGGTGGCTACGACGGGATT
B24: CUAUAUC (DNA:RNA)
RNA: B1 RNA with U25C, A26U, C28U, C30U, A31C
DNA 1: CAATCTGAATTCCGGTCTCCC
DNA 2: TGGTGGCTACGACGGGATT
B25: GCCCAGG (DNA:RNA)
RNA: B1 RNA with U25G, A26C, A27C, C30G, A31G
DNA 1: CAATCTGAATTCCGGTCTCCC
DNA 2: TGGTGGCTACGACGGGATT
B26: CGAGGGU (DNA:RNA)
RNA: B1 RNA with U25C, A26G, C28G, A29G, C30G, A31U
DNA 1: CAATCTGAATTCCGGTCTCCC
DNA 2: TGGTGGCTACGACGGGATT
B27: GAGGUAC (DNA:RNA)
RNA: B1 RNA with U25G, A27G, C28G, A29U, C30A, A31C
DNA 1: CAATCTGAATTCCGGTCTCCC
DNA 2: TGGTGGCTACGACGGGATT
B28: AAGCGAA (DNA:RNA)
RNA: B1 RNA with U25A, A27G, A29G, C30A
DNA 1: CAATCTGAATTCCGGTCTCCC
DNA 2: TGGTGGCTACGACGGGATT
B29: CGUCCUU (DNA:RNA)
RNA: B1 RNA with U25C, A26G, A27U, A29C, C30U, A31U
DNA 1: CAATCTGAATTCCGGTCTCCC
DNA 2: TGGTGGCTACGACGGGATT
B30: ACCCCUU (DNA:RNA)
RNA: B1 RNA with U25A, A26C, A27C, A29C, C30U, A31U
DNA 1: CAATCTGAATTCCGGTCTCCC
DNA 2: TGGTGGCTACGACGGGATT
B31: GCGGGGA (DNA:RNA)
RNA: B1 RNA with U25G, A26C, A27G, C28G, A29G, C30G
DNA 1: CAATCTGAATTCCGGTCTCCC
DNA 2: TGGTGGCTACGACGGGATT

The binders below were run against T1, RBFOX1 RRM (assay: EMSA; HiTS-Eq, 1 nM pool, 10 min; buffer printed only for the single-RNA assays: 10 mM Tris pH 7.5, 150 mM NaCl, 3.4 mM EDTA, 0.001% NP-40, 30 C). Settings: tags: His6 N-terminal (pET28a); label: 5' 32P.
How it was run: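 A pool of RNA with 7 randomized nucleotides, 5′-radiolabelled and with DNA-annealed flanks, was equilibrated at 1 nM for 10 min in 50 µL with purified RbFox RRM, wild type or mutant, across increasing protein concentrations. Free RNA was separated by 8% native PAGE, excised, reverse-transcribed, barcoded by PCR and sequenced. Relative association constants were obtained from read-count changes of each RNA species versus the control reaction and normalised to the cognate motif.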
For B1, the binding signal was 0.000618 KA relative to UGCAUGU.
For B2, the binding signal was 0.00513 KA relative to UGCAUGU.
For B3, the binding signal was 0.0115 KA relative to UGCAUGU.
With B4 the binding signal was 0.00612 KA relative to UGCAUGU.
In the case of B5, the binding signal is reported as 0.0213 KA relative to UGCAUGU.
With B6 the binding signal was 0.0152 KA relative to UGCAUGU.
In the case of B7, the binding signal is reported as 0.0121 KA relative to UGCAUGU.
B8 was tested, and the binding signal was 0.0122 KA relative to UGCAUGU.
B9 was tested, and the binding signal was 0.00974 KA relative to UGCAUGU.
B10 was tested, and the binding signal was 0.00114 KA relative to UGCAUGU.
B11 was tested, and the binding signal was 0.0154 KA relative to UGCAUGU.
B12 was tested, and the binding signal was 0.00701 KA relative to UGCAUGU.
In the case of B13, the binding signal is reported as 0.0186 KA relative to UGCAUGU.
B14 was tested, and the binding signal was 0.0136 KA relative to UGCAUGU.
In the case of B15, the binding signal is reported as 0.00612 KA relative to UGCAUGU.
In the case of B16, the binding signal is reported as 0.0115 KA relative to UGCAUGU.
For B17, the binding signal was 0.00424 KA relative to UGCAUGU.
With B18 the binding signal was 0.0138 KA relative to UGCAUGU.
B19 was tested, and the binding signal was 0.0117 KA relative to UGCAUGU.
B20 was tested, and the binding signal was 0.00573 KA relative to UGCAUGU.
With B21 the binding signal was 0.00944 KA relative to UGCAUGU.
For B22, the binding signal was 0.0137 KA relative to UGCAUGU.
For B23, the binding signal was 0.00211 KA relative to UGCAUGU.
For B24, the binding signal was 0.00386 KA relative to UGCAUGU.
For B25, the binding signal was 0.0161 KA relative to UGCAUGU.
B26 was tested, and the binding signal was 0.00789 KA relative to UGCAUGU.
For B27, the binding signal was 0.0148 KA relative to UGCAUGU.
In the case of B28, the binding signal is reported as 0.00487 KA relative to UGCAUGU.
In the case of B29, the binding signal is reported as 0.00594 KA relative to UGCAUGU.
In the case of B30, the binding signal is reported as 0.00262 KA relative to UGCAUGU.
B31 was tested, and the binding signal was 0.0289 KA relative to UGCAUGU.

From article PMC9911399, “Two distinct binding modes provide the RNA-binding protein RbFox with extraordinary sequence specificity”
